# The supplement of paper PMC8728848
# This is one part of the list.
# B1: GS7807E-bfa-538-23-538 (Bacteroides fragilis) (protein)
# chain: TDSFESFNTNEAGFDNDSKKQDFNYYGIPLGIIQQGIYFNYDWGSGKNWPFQTMQNLGADLFSGYVHDFNPFNEGKNNSTYYMMDGWNGSTWDNTYGYIMPEVQKSETINEKDNIGFFGITKILKVELMHRLSDLYGPIVYTQFGSKTGSTPDTQQEAYKAFFNDLDTGIAKIREYQKANPDIESFAKFDILMPQGKRTFSEWIRFANSLRLRLAVRIAMADSKLAVAEAQKALTDEEGLLEGNDEVVAVSTSSGYTNPFGEINKAWGEVFMNANMESLLVGYEDPRMEKYFDKATGSDATSLIDYKGTYKGIRQGTGFSHKNYNGHSKSTITQQTDAVLMTPAEVWFLRAEAALRGWSSESVKDCYEKGVKASFAQWGAAGAEAYLESDRKPSDYVDAFKAANNVKAVNTLTPKWDDAAGNEDKLGRIITQKWLAMFPEGGEAWAEQRRTGYPRLFPVLVNQSEGTVDTNLGPRRLNFFVGIKTTNPEQYTQLVNALGGIDNCGTRLWWDTGRNF
# Experiments:
# Assay in all cases: glycan array binding signal (z-score within array); higher = stronger binding
# Settings in all cases: glycan notation: IUPAC condensed, linker removed
# [1] = target: Neu5Ac(a2-3)Gal(b1-4)GlcNAc(b1-6)GalNAc
# Procedure, shortened: (§1)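 From the Consortium for Functional Glycomics database, 3228 arrays were curated, keeping only those whose protein sequence was available. Binding is given as a within-array Z-score averaged across arrays sharing a protein sequence and across linkers. Negative Z-scores can be read as non-binding.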
# [2] = target: Neu5Ac(a2-3)Gal(b1-4)GlcNAc(b1-6)[Gal(b1-3)]GalNAc
# Procedure, shortened: as §1
# [3] = target: Neu5Ac(a2-3)Gal(b1-4)GlcNAc(b1-6)[Neu5Ac(a2-3)Gal(b1-3)]GalNAc
# Procedure, shortened: as §1
# [4] = target: Neu5Ac(a2-3)Gal(b1-4)GlcNAc6S
# Procedure, shortened: as §1
# [5] = target: Neu5Ac(a2-3)Gal(b1-4)[Fuc(a1-3)]GlcNAc
# Procedure, shortened: as §1
# [6] = target: Neu5Ac(a2-3)Gal(b1-4)[Fuc(a1-3)]GlcNAc(b1-2)Man
# Procedure, shortened: as §1
# [7] = target: Neu5Ac(a2-3)Gal(b1-4)[Fuc(a1-3)]GlcNAc(b1-3)Gal
# Procedure, shortened: as §1
# [8] = target: Neu5Ac(a2-3)Gal(b1-4)[Fuc(a1-3)]GlcNAc(b1-3)Gal(b1-4)GlcNAc
# Procedure, shortened: as §1
# [9] = target: Neu5Ac(a2-3)Gal(b1-4)[Fuc(a1-3)]GlcNAc(b1-3)Gal(b1-4)[Fuc(a1-3)]GlcNAc(b1-3)Gal(b1-4)[Fuc(a1-3)]GlcNAc
# Procedure, shortened: as §1
# [10] = target: Neu5Ac(a2-3)Gal(b1-4)[Fuc(a1-3)]GlcNAc(b1-3)GalNAc
# Procedure, shortened: as §1
# [11] = target: Neu5Ac(a2-3)Gal(b1-4)[Fuc(a1-3)]GlcNAc(b1-6)[Gal(b1-3)]GalNAc
# Procedure, shortened: as §1
# [12] = target: Neu5Ac(a2-3)Gal(b1-4)[Fuc(a1-3)]GlcNAc(b1-6)[Neu5Ac(a2-3)Gal(b1-3)]GalNAc
# Procedure, shortened: as §1
# [13] = target: Neu5Ac(a2-3)Gal(b1-4)[Fuc(a1-3)]GlcNAc6S
# Procedure, shortened: as §1
# [14] = target: Neu5Ac(a2-3)Gal6S(b1-4)GlcNAc
# Procedure, shortened: as §1
# [15] = target: Neu5Ac(a2-3)Gal6S(b1-4)[Fuc(a1-3)]GlcNAc
# Procedure, shortened: as §1
# [16] = target: Neu5Ac(a2-3)GalNAc
# Procedure, shortened: as §1
# [17] = target: Neu5Ac(a2-3)GalNAc(b1-4)GlcNAc
# Procedure, shortened: as §1
# [18] = target: Neu5Ac(a2-3)[GalNAc(b1-4)]Gal(b1-4)Glc
# Procedure, shortened: as §1
# [19] = target: Neu5Ac(a2-3)[GalNAc(b1-4)]Gal(b1-4)GlcNAc
# Procedure, shortened: as §1
# [20] = target: Neu5Ac(a2-3)[GalNAc(b1-4)]Gal(b1-4)GlcNAc(b1-3)GalNAc
# Procedure, shortened: as §1
# [21] = target: Neu5Ac(a2-3)[Neu5Ac(a2-6)]GalNAc
# Procedure, shortened: as §1
# [22] = target: Neu5Ac(a2-6)Gal
# Procedure, shortened: as §1
# [23] = target: Neu5Ac(a2-6)Gal(b1-3)GlcNAc(b1-3)[Gal(b1-4)GlcNAc(b1-6)]Gal(b1-4)Glc
# Procedure, shortened: as §1
# [24] = target: Neu5Ac(a2-6)Gal(b1-4)Glc
# Procedure, shortened: as §1
# [25] = target: Neu5Ac(a2-6)Gal(b1-4)GlcNAc
# Procedure, shortened: as §1
# [26] = target: Neu5Ac(a2-6)Gal(b1-4)GlcNAc(b1-2)Man
# Procedure, shortened: as §1
# [27] = target: Neu5Ac(a2-6)Gal(b1-4)GlcNAc(b1-2)Man(a1-3)Man(b1-4)GlcNAc(b1-4)GlcNAc
# Procedure, shortened: as §1
# [28] = target: Neu5Ac(a2-6)Gal(b1-4)GlcNAc(b1-2)Man(a1-3)[Gal(b1-4)GlcNAc(b1-2)Man(a1-6)]Man(b1-4)GlcNAc(b1-4)GlcNAc
# Procedure, shortened: as §1
# [29] = target: Neu5Ac(a2-6)Gal(b1-4)GlcNAc(b1-2)Man(a1-3)[GlcNAc(b1-2)Man(a1-6)]Man(b1-4)GlcNAc(b1-4)GlcNAc
# Procedure, shortened: as §1
# [30] = target: Neu5Ac(a2-6)Gal(b1-4)GlcNAc(b1-2)Man(a1-3)[GlcNAc(b1-4)][Neu5Ac(a2-6)Gal(b1-4)GlcNAc(b1-2)Man(a1-6)]Man(b1-4)GlcNAc(b1-4)GlcNAc
# Procedure, shortened: as §1
# [31] = target: Neu5Ac(a2-6)Gal(b1-4)GlcNAc(b1-2)Man(a1-3)[Man(a1-6)]Man(b1-4)GlcNAc(b1-4)GlcNAc
# Procedure, shortened: as §1
binder,measurement,setting,value
B1,glycan array binding signal (z-score),[1],0.432
same,glycan array binding signal (z-score),[2],-0.679
same,glycan array binding signal (z-score),[3],-0.658
same,glycan array binding signal (z-score),[4],-0.628
same,glycan array binding signal (z-score),[5],-0.694
same,glycan array binding signal (z-score),[6],-0.622
same,glycan array binding signal (z-score),[7],-0.683
same,glycan array binding signal (z-score),[8],0.137
same,glycan array binding signal (z-score),[9],-0.554
same,glycan array binding signal (z-score),[10],-0.247
same,glycan array binding signal (z-score),[11],2.54
same,glycan array binding signal (z-score),[12],1.81
same,glycan array binding signal (z-score),[13],-0.618
same,glycan array binding signal (z-score),[14],-0.53
same,glycan array binding signal (z-score),[15],-0.667
same,glycan array binding signal (z-score),[16],-0.698
same,glycan array binding signal (z-score),[17],-0.699
same,glycan array binding signal (z-score),[18],-0.398
same,glycan array binding signal (z-score),[19],-0.316
same,glycan array binding signal (z-score),[20],1.47
same,glycan array binding signal (z-score),[21],-0.638
same,glycan array binding signal (z-score),[22],0.756
same,glycan array binding signal (z-score),[23],0.149
same,glycan array binding signal (z-score),[24],-0.655
same,glycan array binding signal (z-score),[25],-0.395
same,glycan array binding signal (z-score),[26],0.901
same,glycan array binding signal (z-score),[27],0.764
same,glycan array binding signal (z-score),[28],0.07
same,glycan array binding signal (z-score),[29],-0.484
same,glycan array binding signal (z-score),[30],0.072
same,glycan array binding signal (z-score),[31],1.98
